The whole screen tested about 46,000 compounds, of which about 60 (0.1%) were called active. About 3% were inconclusive and are not listed. The call rests on the fitted dose curve; in most records, active means well fitted inhibition curve with a large enough effect; inconclusive means small, poorly fitted or top-dose-only effect; inactive means no such curve, though single readings can be large or run the other way. The list shows a part of the results.
Assay: Primary qHTS assay for Inhibitors of ovarian cancer metastasis using an organotypic tumor microenvironment (TME) model. Further: nearly all actives have a fitted effect of over 65% in size.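 On Potency: count of GFP cancer cells still attached after washing and fixation.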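 On activity change, negative = inhibition: plate controls were DMSO wells for no effect and tomatine positive control wells for full effect.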
Conditions: SKOV3ip1-GFP adhesion/invasion on 3D omental model, fluorescence; series mostly up to 45.8 µM; activity change, negative = inhibition: at the top concentration
Outline: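 Primary human omental fibroblast/mesothelial 3D culture pre-formed 48 h. SKOV3ip1-GFP cells added with compounds (0.36-46 umol/L), incubated 2 h RT/16 h 37 C, fixed; GFP cells quantified at 488/509 nm.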
Potency means the concentration at half of the fitted maximal effect.

Structure (SMILES) | activity change, negative = inhibition | outcome | Potency
Cc1cc(-c2ccc(C)c(S(=O)(=O)NCc3cccs3)c2)on1 | inactive: -18.8% | – | –
CCc1ccc(N2C(=O)CN(S(=O)(=O)CC)CC2(C)C(=O)NC2CCCCC2)cc1 (configuration not stated) | inactive: -4.29% | – | –
Cn1cc(C(=O)NCCc2ccccc2)c(=O)c2cc(S(=O)(=O)N3CCCCC3)ccc21 | inactive: 3.64% | – | –
CC(C)(C)OC(=O)N1CCC(c2c(C(=O)N3CCN(Cc4ccccc4)CC3)cnn2-c2ccc(Cl)cc2)CC1 | – | inactive | –
CCOC(=O)c1c(C)[nH]c(C)c1S(=O)(=O)N1CCC(C(=O)Nc2ccc(C)c(N(C)C)c2)CC1 | inactive: 17.2% | – | –
CCC1CCCCN1C(=O)CCS(=O)(=O)c1cc2c(cc1C)NC(=O)CO2 (configuration not stated) | – | inactive | –
O=c1c2oc3ccccc3c2n(Cc2ccc(Cl)cc2)c(=O)n1Cc1ccccc1 | inactive: 6.46% | – | –
Cc1ccc(Nc2c(-c3ccc(C)o3)nc3cccc(C)n23)cc1 | inactive: -25.6% | – | –
CC=CCC=CCCC(=O)[C@H]1O[C@@H]1C(N)=O | inactive: -0.0997% | – | –
O=C(CNC(=O)c1ccccc1)OCc1cc(=O)n2nc(C3CC3)sc2n1 | – | inactive | –
COc1ccc(-c2cc(=O)oc3c4c(ccc23)OCN(Cc2ccccc2)C4)cc1 | inactive: 4.7% | – | –
O=C(Nc1cc(F)ccc1F)c1ccc(CN2CC(=O)N3CCCCC3C2=O)cc1 (configuration not stated) | – | inactive | –
CCS(=O)(=O)c1ncc(Cl)c(C(=O)NCc2ccccc2)n1 | – | – | active: 10 µM
Cc1cc(C)cc(-n2c(SCC(=O)N3CCCCCC3)nc3c([nH]c4ccccc43)c2=O)c1 | – | inactive | –
O=C(Nc1cccc(C(F)(F)F)c1)C1CCN(S(=O)(=O)c2cccs2)CC1 | inactive: -5.96% | – | –
CC(=O)c1ccc(NC(=O)CSc2nnc(N)s2)cc1 | – | inactive | –
COc1cc(Cl)c(C)cc1NC(=O)Cn1c(C)c2cnn(-c3ccccc3)c(=O)c2c1C | – | inactive | –
CC(=O)Nc1c(C)nn(-c2ccccc2)c1N1CCC(C(=O)NCc2ccc(F)cc2)CC1 | – | inactive | –
C=C(C)Cn1c(SCC(=O)c2ccccc2)nc2sc3c(c2c1=O)CCCC3 | inactive: -7.52% | – | –
CCn1cc2nc(SCc3cccc(C(F)(F)F)c3)n(Cc3ccc(OC)cc3)c(=O)c2n1 | inactive: -9.02% | – | –
COc1cc2c(cc1NC(=O)COc1ccc(Cl)cc1)oc1ccccc12 | inactive: 11.2% | – | –

Structure (SMILES) | activity change, negative = inhibition | outcome | Potency
O=C(Nc1ccc(F)cc1)c1cc2cc3ccc(Cl)cc3nc2o1 | inactive: 4.87% | – | –
Cc1ccc(-c2noc(-c3nnn(-c4ccc(Br)cc4F)c3C)n2)cc1 | – | inactive | –
Cc1nnc(N2CCC(C(=O)NC(C)C)CC2)c2nn(-c3ccccc3)c(C)c12 | inactive: -0.366% | – | –
Clc1ccccc1CN1CCc2nc(N3CCN(c4ncccn4)CC3)ncc2C1 | inactive: -6.33% | – | –
CC(=O)Nc1ccc(C(=O)Nc2ccc3c(c2)N(C2CCCC2)C(=O)c2ccccc2S3)cc1 | inactive: -5.1% | – | –
Cc1ccccc1CNCc1c(C(=O)O)c(C)n(Cc2ccc(F)cc2Cl)c1C | inactive: -6.98% | – | –
COc1ccc(-n2ncc3c2ncn2nc(Cc4ccccc4)nc32)cc1 | inactive: -0.823% | – | –
Cc1cccc(CSc2nnc(CCCCCN)o2)c1 | inactive: 12.2% | – | –
Cc1ccc(C)c(NC(=O)c2nnn(Cc3ccc(F)cc3Cl)c2N)c1 | inactive: -0.327% | – | –
Cn1nc(-c2ccccc2F)c2cc(C(=O)NCc3cccc(Cl)c3)sc21 | inactive: 37.5% | – | –
Cc1cc(C)cc(NC(=O)c2cc(S(=O)(=O)N3CCCC3)ccc2F)c1 | inactive: 1.96% | – | –
Cc1nc(-c2cccc(S(=O)(=O)N3CCC(C(=O)NCc4ccccc4Cl)CC3)c2)no1 | inactive: 20.9% | – | –
CCc1c(C)sc2c1CCN(C(=O)Nc1cc(C)ccc1C)C2c1ccc(OC)cc1 (configuration not stated) | inactive: -0.589% | – | –
CC[C@H](C)C(=O)O[C@H]1C[C@H](O)C=C2C=C[C@H](C)[C@H](CC[C@@H](O)C[C@@H](O)CC(=O)O)[C@H]21 | inactive: -13.6% | – | –
COc1ccc(-n2ncc(C(=O)NCCN3CCOCC3)c2C2CCN(C(=O)OC(C)(C)C)CC2)cc1 | inactive: -4.5% | – | –
COc1ccc(OC)c(CCNC(=O)Cn2nc(C)n3c(cc4sccc43)c2=O)c1 | – | inactive | –
COc1ccc(CCNS(=O)(=O)c2ccc(N3CCCCS3(=O)=O)cc2)cc1 | inactive: -10% | – | –
O=C(c1cc2c(s1)-c1ccccc1OC2)N1CCN(c2ccc(F)cc2)CC1 | inactive: 3.11% | – | –
CCc1ccc(C=C2SC(=S)NC2=O)cc1 | inactive: -4.26% | – | –
COc1cc(OC)c(NC(=O)N2CCc3cc(S(=O)(=O)N4CCC(C)CC4)ccc32)cc1Cl | inactive: 19.3% | – | –
O=c1oc2ccc3ccccc3c2cc1-c1nnc(Nc2cccc(C(F)(F)F)c2)s1 | inactive: -5.41% | – | –

Structure (SMILES) | activity change, negative = inhibition | outcome | Potency
O=C(NCCc1ccccc1)c1cnc2sc(N3CCCCC3)nn2c1=O | inactive: -5.07% | – | –
CCC1Oc2ccccc2N(CC(=O)NCCc2ccc(OC)c(OC)c2)C1=O (configuration not stated) | – | inactive | –
CC(=O)c1cccc(NC(=O)C2CCN(S(=O)(=O)c3ccccc3)CC2)c1 | inactive: 0.336% | – | –
COc1ccc(CNC(=O)c2nn(C)c3c2CS(=O)(=O)c2ccccc2-3)cc1 | inactive: -3.34% | – | –
CCC1CCCCN1S(=O)(=O)c1cc2c(cc1C)NC(=O)CO2 (configuration not stated) | inactive: 0.574% | – | –
Cc1ccc(CN(C(=O)COc2ccc([N+](=O)[O-])cc2)c2ccccn2)o1 | inactive: 2.87% | – | –
Cc1ccc(Nc2ncc(C(=O)Nc3ccc(F)cc3F)c3ccccc23)cc1Cl | – | inactive | –
CC(=O)c1ccc(NC(=O)CSc2ccc3nnc(CCNS(=O)(=O)c4ccc(C)cc4)n3n2)cc1 | inactive: -7.09% | – | –
O=c1[nH]c2ccc(NCc3ccc(-c4ccc(F)cc4)o3)cc2[nH]1 | inactive: -1.48% | – | –
CC1CCC(NC(=O)Cn2ncc3c4ccccc4n(Cc4ccc(F)cc4)c3c2=O)CC1 (configuration not stated) | inactive: -9.66% | – | –
c1ccc2c(c1)ncc1nncn12 | – | inactive | –
CCOC(=O)Cc1c(C)nc2c(-c3ccc(Cl)cc3)c(C(F)(F)F)nn2c1C | inactive: -7.2% | – | –
CCCc1nn2cc(-c3ccc(C)c(C)c3)nc2s1 | inactive: 4.1% | – | –
COc1ccc(/C=C/C(=O)Nc2ccc3nc4c(c(Nc5ccc(OC)c(OC)c5)c3c2)CCCC4)cc1 | – | – | active: 5.01 µM
COc1ccc(-c2noc(CSc3nnc(Cc4ccccc4)n3-c3cccc(C)c3)n2)cc1 | – | inactive | –
CCc1nnc(SCC(=O)Nc2cccc(C(F)(F)F)c2)c2cc3oc(C)cc3n12 | inactive: 13.1% | – | –
O=C(COc1ccccc1)Nc1nnc(SCc2cc(=O)n3cc(Cl)ccc3n2)s1 | inactive: 1.84% | – | –
COc1ccc(CCNC(=O)CCS(=O)(=O)c2cc3c(cc2Cl)NC(=O)CO3)cc1OC | inactive: 18.5% | – | –
Cc1ccc2onc(CNC(=O)NCc3ccccc3)c2c1 | inactive: 8.18% | – | –
CCC(C(=O)Nc1ccccc1OC)n1c(C(=O)OC)cc2sc(Cl)cc21 (configuration not stated) | inactive: -1.55% | – | –

Source: PubChem BioAssay AID1963576 (National Center for Advancing Translational Sciences (NCATS), 2024)
